Assay results: the supplement of paper PMC4604168 (melanoma cell lines)
The list shows a part of the results. Single values are uncertain, as repeats are few or missing.

What follows are molecules tested on C32 (assay: cell count relative to DMSO control; melanoma cells; higher = more viable cells). Settings: library dose: standard library concentration; 72 h.
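Note: cells treated in 1,536-well plates, then fixed and DAPI-stained, with nuclei counted from automated high-throughput microscope images.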

**Q.** How did the cell count turn out when `O=C(Nc1cc(C(F)(F)F)cc(C(F)(F)F)c1)c1cc(Cl)ccc1O` + CS(=O)(=O)c1ccc(C(=O)Nc2ccc(Cl)c(-c3ccccn3)c2)c(Cl)c1 [vismodegib] (first compound 0.08 µM, partner dose 5 µM) was run?
**A.** 115%

**Q.** For `O=C(Nc1cc(C(F)(F)F)cc(C(F)(F)F)c1)c1cc(Cl)ccc1O` + CN(C)S(=O)(=O)c1ccc2c(c1)/C(=C/c1cc3c([nH]1)CCCC3)C(=O)N2 [SU6656] (first compound 0.08 µM, partner dose 2 µM), which cell count is on record?
**A.** 77.5%

**Q.** How did the cell count turn out when `O=C(O)c1ccc2c(c1)nc(Nc1cccc(Cl)c1)c1ccncc12` + COc1cc2c(Oc3ccc4[nH]c(C)cc4c3F)ncnc2cc1OCCCN1CCCC1 [cediranib] (first compound 2 µM, partner dose 2 µM) was run?
**A.** 60.9%

**Q.** `O=C(Nc1cc(C(F)(F)F)cc(C(F)(F)F)c1)c1cc(Cl)ccc1O` + Cn1nnc2c(C(N)=O)ncn2c1=O [temozolomide] (first compound 0.08 µM, partner dose 10 µM) was tested. Which cell count did it give?
**A.** 86%

**Q.** For `O=C(O)c1ccc2c(c1)nc(Nc1cccc(Cl)c1)c1ccncc12` + C=C(c1ccc(C(=O)O)cc1)c1cc2c(cc1C)C(C)(C)CCC2(C)C [Bexarotene] (first compound 2 µM, partner dose 10 µM), which cell count is on record?
**A.** 95.6%

**Q.** Which cell count does the source give for `O=C(Nc1cc(C(F)(F)F)cc(C(F)(F)F)c1)c1cc(Cl)ccc1O` + CCCCCCCCCCCC1=C(O)C(=O)C=C(O)C1=O [Embelin] (first compound 0.08 µM, partner dose 6 µM) here?
**A.** 98.1%

**Q.** How did the cell count turn out when `O=C(Nc1cc(C(F)(F)F)cc(C(F)(F)F)c1)c1cc(Cl)ccc1O` + CCCCCCCCCCCCCCCCCCOP(=O)([O-])OC1CC[N+](C)(C)CC1 [Perifosine] (first compound 0.08 µM, partner dose 2 µM) was run?
**A.** 105%

**Q.** With `O=C(Nc1cc(C(F)(F)F)cc(C(F)(F)F)c1)c1cc(Cl)ccc1O` + C#Cc1cccc(Nc2ncnc3cc(OCCOC)c(OCCOC)cc23)c1 [erlotinib] (first compound 0.08 µM, partner dose 4 µM) as the molecule, how does the cell count read?
**A.** 106%

**Q.** For `Cn1nnc2c(C(N)=O)ncn2c1=O` [temozolomide] + OCCn1cc(-c2cnc3nnn(Cc4ccc5ncccc5c4)c3n2)cn1 [PF04217903] (first compound 10 µM, partner dose 5 µM), which cell count is on record?
**A.** 115%

**Q.** `O=C(O)[C@@H]1[O][Sb](=[O])([O][Sb]2(=[O])[O][C@H]([C@H](O)CO)[C@H](O)[C@H](C(=O)O)[O]2)[O][C@H]([C@H](O)CO)[C@@H]1O` (stereo not given in full) [stibogluconate] + Cn1nnc2c(C(N)=O)ncn2c1=O [temozolomide] (first compound 10 µM, partner dose 10 µM) was tested. Which cell count did it give?
**A.** 86.2%

**Q.** How did the cell count turn out when `O=C(Nc1cc(C(F)(F)F)cc(C(F)(F)F)c1)c1cc(Cl)ccc1O` + COc1ccc(Cl)c(Nc2nc3ccccc3nc2NS(=O)(=O)c2cccc(NC(=O)C(C)(C)N)c2)c1 [XL147] (first compound 0.08 µM, partner dose 4 µM) was run?
**A.** 104%

**Q.** With `O=C(Nc1cc(C(F)(F)F)cc(C(F)(F)F)c1)c1cc(Cl)ccc1O` + Cc1cc(Nc2cc(N3CCN(C)CC3)nc(/C=C/c3ccccc3)n2)n[nH]1 [ENMD2076] (first compound 0.08 µM, partner dose 0.2 µM) as the molecule, how does the cell count read?
**A.** 101%

**Q.** With `O=C(O)[C@@H]1[O][Sb](=[O])([O][Sb]2(=[O])[O][C@H]([C@H](O)CO)[C@H](O)[C@H](C(=O)O)[O]2)[O][C@H]([C@H](O)CO)[C@@H]1O` (stereo not given in full) [stibogluconate] + COc1cc2c(Oc3ccc4[nH]c(C)cc4c3F)ncnc2cc1OCCCN1CCCC1 [cediranib] (first compound 10 µM, partner dose 2 µM) as the molecule, how does the cell count read?
**A.** 85.2%

**Q.** Which cell count does the source give for `O=C(Nc1cc(C(F)(F)F)cc(C(F)(F)F)c1)c1cc(Cl)ccc1O` + CO[C@@H]1[C@H](N(C)C(=O)c2ccccc2)C[C@H]2O[C@]1(C)n1c3ccccc3c3c4c(c5c6ccccc6n2c5c31)C(=O)NC4 [Midostaurin] (first compound 0.08 µM, partner dose 0.4 µM) here?
**A.** 73%

**Q.** With `O=C(O)[C@@H]1[O][Sb](=[O])([O][Sb]2(=[O])[O][C@H]([C@H](O)CO)[C@H](O)[C@H](C(=O)O)[O]2)[O][C@H]([C@H](O)CO)[C@@H]1O` (stereo not given in full) [stibogluconate] + CN(NC(=O)CC(=O)NN(C)C(=S)c1ccccc1)C(=S)c1ccccc1 [STA4783] (first compound 10 µM, partner dose 0.03 µM) as the molecule, how does the cell count read?
**A.** 13.5%

**Q.** Which cell count does the source give for `O=C(Nc1cc(C(F)(F)F)cc(C(F)(F)F)c1)c1cc(Cl)ccc1O` + OCCn1cc(-c2cnc3nnn(Cc4ccc5ncccc5c4)c3n2)cn1 [PF04217903] (first compound 0.08 µM, partner dose 5 µM) here?
**A.** 99%

**Q.** How did the cell count turn out when `Cc1cc(N2CCOCC2)cc2[nH]c(-c3c(NC[C@@H](O)c4cccc(Cl)c4)cc[nH]c3=O)nc12` + CN(C)S(=O)(=O)c1ccc2c(c1)/C(=C/c1cc3c([nH]1)CCCC3)C(=O)N2 [SU6656] (first compound 1 µM, partner dose 2 µM) was run?
**A.** 59.8%

**Q.** For `O=C(O)[C@@H]1[O][Sb](=[O])([O][Sb]2(=[O])[O][C@H]([C@H](O)CO)[C@H](O)[C@H](C(=O)O)[O]2)[O][C@H]([C@H](O)CO)[C@@H]1O` (stereo not given in full) [stibogluconate] + COc1cc(Nc2ncc(F)c(Nc3ccc4c(n3)NC(=O)C(C)(C)O4)n2)cc(OC)c1OC [Tamatinib] (first compound 10 µM, partner dose 2 µM), which cell count is on record?
**A.** 93.3%

**Q.** Which cell count does the source give for `O=C(Nc1cc(C(F)(F)F)cc(C(F)(F)F)c1)c1cc(Cl)ccc1O` + Cc1ccc(NC(=O)c2cccc(N(C)C)c2)cc1NC(=O)c1ccc(O)cc1 [ZM336372] (first compound 0.08 µM, partner dose 10 µM) here?
**A.** 86.9%

**Q.** How did the cell count turn out when `O=C(O)c1ccc2c(c1)nc(Nc1cccc(Cl)c1)c1ccncc12` + Nc1nc(F)nc2c1ncn2[C@@H]1O[C@H](CO)[C@@H](O)[C@@H]1O [fludarabine] (first compound 2 µM, partner dose 1 µM) was run?
**A.** 83.6%

**Q.** Which cell count does the source give for `Cn1nnc2c(C(N)=O)ncn2c1=O` [temozolomide] + Cc1cc(N2CCOCC2)cc2[nH]c(-c3c(NC[C@@H](O)c4cccc(Cl)c4)cc[nH]c3=O)nc12 [BMS536924] (first compound 10 µM, partner dose 1 µM) here?
**A.** 85.7%

**Q.** How did the cell count turn out when `O=C(O)[C@@H]1[O][Sb](=[O])([O][Sb]2(=[O])[O][C@H]([C@H](O)CO)[C@H](O)[C@H](C(=O)O)[O]2)[O][C@H]([C@H](O)CO)[C@@H]1O` (stereo not given in full) [stibogluconate] + NC(=O)Nc1cc(-c2cccc(F)c2)sc1C(=O)N[C@H]1CCCNC1 [AZD7762] (first compound 10 µM, partner dose 0.1 µM) was run?
**A.** 39.7%

**Q.** `O=C(O)[C@@H]1[O][Sb](=[O])([O][Sb]2(=[O])[O][C@H]([C@H](O)CO)[C@H](O)[C@H](C(=O)O)[O]2)[O][C@H]([C@H](O)CO)[C@@H]1O` (stereo not given in full) [stibogluconate] + COc1ccc(Cl)c(Nc2nc3ccccc3nc2NS(=O)(=O)c2cccc(NC(=O)C(C)(C)N)c2)c1 [XL147] (first compound 10 µM, partner dose 4 µM) was tested. Which cell count did it give?
**A.** 93.4%

**Q.** Which cell count does the source give for `Cn1nnc2c(C(N)=O)ncn2c1=O` [temozolomide] + O=C(O)c1ccc(-c2c[nH]c3ncc(-c4ccccc4)cc23)cc1C1CCCC1 [GSK650394] (first compound 10 µM, partner dose 0.8 µM) here?
**A.** 79.9%

**Q.** `Cn1nnc2c(C(N)=O)ncn2c1=O` [temozolomide] + CCN(CC)CCCCNc1ncc2cc(-c3cc(OC)cc(OC)c3)c(NC(=O)NC(C)(C)C)nc2n1 [PD173074] (first compound 10 µM, partner dose 0.5 µM) was tested. Which cell count did it give?
**A.** 114%

**Q.** `O=C(O)[C@@H]1[O][Sb](=[O])([O][Sb]2(=[O])[O][C@H]([C@H](O)CO)[C@H](O)[C@H](C(=O)O)[O]2)[O][C@H]([C@H](O)CO)[C@@H]1O` (stereo not given in full) [stibogluconate] + OCc1c[nH]c2ccccc12 [Indole-3-carbinol] (first compound 10 µM, partner dose 4 µM) was tested. Which cell count did it give?
**A.** 81.2%

**Q.** Which cell count does the source give for `Cn1nnc2c(C(N)=O)ncn2c1=O` [temozolomide] + O=C(Nc1cccc(Cl)c1)Nc1ncc(CCNc2ncnc3ccsc23)s1 [SNS314] (first compound 10 µM, partner dose 0.004 µM) here?
**A.** 65.9%

**Q.** How did the cell count turn out when `O=C(Nc1cc(C(F)(F)F)cc(C(F)(F)F)c1)c1cc(Cl)ccc1O` + Cc1cc(N2CCOCC2)cc2[nH]c(-c3c(NC[C@@H](O)c4cccc(Cl)c4)cc[nH]c3=O)nc12 [BMS536924] (first compound 0.08 µM, partner dose 1 µM) was run?
**A.** 86.9%

**Q.** Which cell count does the source give for `O=C(O)c1ccc2c(c1)nc(Nc1cccc(Cl)c1)c1ccncc12` + Cn1cncc1[C@@](N)(c1ccc(Cl)cc1)c1ccc2c(c1)c(-c1cccc(Cl)c1)cc(=O)n2C [tipifarnib] (first compound 2 µM, partner dose 0.05 µM) here?
**A.** 82.9%

**Q.** How did the cell count turn out when `Cc1cc(N2CCOCC2)cc2[nH]c(-c3c(NC[C@@H](O)c4cccc(Cl)c4)cc[nH]c3=O)nc12` + COc1cc2c(Oc3ccc4[nH]c(C)cc4c3F)ncnc2cc1OCCCN1CCCC1 [cediranib] (first compound 1 µM, partner dose 2 µM) was run?
**A.** 69.4%
